Assay results reported in article PMC4336329 (PLoS ONE, 2015).
The campaign covered roughly 310,000 compounds. About 14,000 (4.5%) showed an effect of 50% or more. The effect is printed as a negative number. The list shows a part of the results.

What follows are compounds tested against human ether-à-go-go-related gene (hERG) potassium channel (human, UniProt Q12809) (assay: primary screen, population patch clamp on CHO cells stably expressing hERG).
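Further: peak tail current of the secondary pulse compared with the same well before compound.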

Chain of human ether-à-go-go-related gene (hERG) potassium channel (Q12809 whole entry, looked up): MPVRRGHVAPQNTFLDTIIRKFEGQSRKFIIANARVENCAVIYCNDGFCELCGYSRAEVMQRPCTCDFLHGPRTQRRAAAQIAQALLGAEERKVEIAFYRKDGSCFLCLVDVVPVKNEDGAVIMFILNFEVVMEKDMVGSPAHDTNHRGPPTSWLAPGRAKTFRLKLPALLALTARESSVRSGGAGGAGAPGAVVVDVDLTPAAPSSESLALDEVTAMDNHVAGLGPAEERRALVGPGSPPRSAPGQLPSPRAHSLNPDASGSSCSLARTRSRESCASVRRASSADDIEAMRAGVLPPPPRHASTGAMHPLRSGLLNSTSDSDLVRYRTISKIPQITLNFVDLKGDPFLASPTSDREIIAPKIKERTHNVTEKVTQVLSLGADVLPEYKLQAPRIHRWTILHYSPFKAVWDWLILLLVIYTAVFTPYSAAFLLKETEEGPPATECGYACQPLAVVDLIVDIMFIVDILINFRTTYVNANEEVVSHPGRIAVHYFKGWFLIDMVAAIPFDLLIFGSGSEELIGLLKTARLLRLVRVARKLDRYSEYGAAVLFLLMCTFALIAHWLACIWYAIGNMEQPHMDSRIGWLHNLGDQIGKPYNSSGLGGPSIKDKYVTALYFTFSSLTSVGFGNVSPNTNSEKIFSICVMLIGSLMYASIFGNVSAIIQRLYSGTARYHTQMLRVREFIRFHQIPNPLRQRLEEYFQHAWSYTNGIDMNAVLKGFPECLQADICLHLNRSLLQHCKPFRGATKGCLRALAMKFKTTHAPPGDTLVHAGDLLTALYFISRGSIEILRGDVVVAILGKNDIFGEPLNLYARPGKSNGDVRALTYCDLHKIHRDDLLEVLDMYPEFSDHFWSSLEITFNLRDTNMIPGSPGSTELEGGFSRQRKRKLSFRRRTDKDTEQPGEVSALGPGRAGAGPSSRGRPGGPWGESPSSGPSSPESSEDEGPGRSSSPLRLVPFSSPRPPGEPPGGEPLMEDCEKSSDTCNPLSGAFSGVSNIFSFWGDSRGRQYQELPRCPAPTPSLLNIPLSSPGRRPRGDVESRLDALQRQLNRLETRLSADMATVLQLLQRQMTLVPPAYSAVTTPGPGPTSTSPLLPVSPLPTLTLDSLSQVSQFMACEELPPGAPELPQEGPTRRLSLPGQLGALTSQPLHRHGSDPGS

Row | Structure (SMILES) | hERG current change (%, negative = inhibition) at 10uM [%]
1 | Cc1cc(-c2onc3ccc(Cl)cc23)ccc1O | 17.2
2 | CN(CC(O)COCc1ccc2c(c1)OCO2)C1CCCCC1.Cl (stereo not drawn) | -20.6
3 | CCc1ccc(-c2cc3c(=O)n(CC(=O)NCCCN4CCC(Cc5ccccc5)CC4)nc(C)n3n2)cc1 | 2.48
4 | COc1ccc(C(C#N)N2N=C(C)CC2c2ccccc2)cc1 (stereo not drawn) | 9.47
5 | c1ccc(CSC2=NNC(c3ccccn3)S2)cc1 (stereo not drawn) | 14.8
6 | CCOc1ccc(CCNC(=O)CN2C(=O)NC3(CCc4ccccc43)C2=O)cc1OCC (stereo not drawn) | -9.62
7 | O=C(C1CCCO1)N1CCN(S(=O)(=O)c2ccc(Br)cc2)CC1 (stereo not drawn) | -6.15
8 | CCN(CC)S(=O)(=O)c1ccc(N2CCOCC2)c(NC(=O)CC23CC4CC(CC(Br)(C4)C2)C3)c1 | -6.98
9 | Cc1cc(C)nc(N/N=C2/CCCC/C2=C\c2ccccc2)n1 | 36.5
10 | CCOC(=O)C(Cc1ccccc1)C(=O)Nc1ccc(NC(=O)C(Cc2ccccc2)C(=O)OCC)cc1 (stereo not drawn) | -14.5
11 | Cn1c(Cc2nc3ccccc3n2C)nc2ccccc21 | 5.7
12 | COc1ccc(/C=C(/NC(=O)c2ccccc2)C(=O)NCC2CCCO2)cc1 (stereo not drawn) | -0.598
13 | Cc1ccc2[nH]c3c(Cl)ncnc3c2c1 | 5.18
14 | CCN(CC)CC(O)COc1ccc2c(c1)OCO2.Cl (stereo not drawn) | -25.2
15 | Fc1ccc(NC(=S)N2CCOCC2)c(F)c1 | 14.7
16 | CS(=O)(=O)N(CC(=O)N1CCN(c2ccc(F)cc2)CC1)C1CCCCC1 | -22
17 | CC1CCN(S(=O)(=O)c2cccc(C(=O)N(C)C3(C)CCS(=O)(=O)C3)c2)CC1 (stereo not drawn) | -13.9
18 | CS(=O)(=O)N1CCC(C(=O)O)CC1 | 8.55
19 | CN(C)c1ccc(/C=c2/sc3n(c2=O)NC2(c4ccccc4)N(C)C(=O)N(C)C2(c2ccccc2)N=3)cc1 (stereo not drawn) | -3.35

Row | Structure (SMILES) | hERG current change (%, negative = inhibition) at 10uM [%]
20 | COC(=O)c1sccc1S(=O)(=O)Nc1ccc(Cl)cc1 | -0.791
21 | CCCCN=C(C)c1c(O)c2ccccc2oc1=O | -21.1
22 | Cc1ccccc1NS(=O)(=O)c1ccc(C(=O)NCC2CCCO2)cc1 (stereo not drawn) | -0.334
23 | C=CCc1c(OC)ccc2ccc(=O)oc12 | 19
24 | COc1cccc(C2C=C(c3cccs3)Nc3ncnn32)c1OC (stereo not drawn) | 11.1
25 | COc1ccc(CN2CC(C(=O)NCCCN3CCCCCC3)CC2=O)cc1 (stereo not drawn) | -10.4
26 | c1csc(CN2CCOCC2)c1 | 17.1
27 | Cl.O=C(CCN1CCc2ccccc2C(c2ccccc2)C1)c1ccc2c(c1)OCCO2 (stereo not drawn) | -0.525
28 | O=C(NCC1CCCO1)c1ccc(CS(=O)(=O)c2ccc(Br)cc2)o1 (stereo not drawn) | -15.9
29 | O=C(COC(=O)C12CC3CC(CC(O)(C3)C1)C2)Nc1ccccc1OC(F)F | -9.92
30 | CCCCCOC(=O)CC(C(=O)OCCCCC)N1CCCCC1.Cl (stereo not drawn) | 1.05
31 | CCN(CC)C(=O)N1CCN(S(=O)(=O)c2ccccc2)CC1 | 19.8
32 | O=C(CCNC(=O)c1ccccc1)Oc1ccc([N+](=O)[O-])cc1 | -44
33 | CCOc1ccc(N(CC(=O)N2CCCC2)S(=O)(=O)c2ccc(Cl)cc2)cc1 | -9.37
34 | FC(F)(F)c1ccc(Cl)c(-n2c(-c3cc(-c4ccco4)[nH]n3)n[nH]c2=S)c1 | 17.8
35 | Cc1ccc2nc(SCC(=O)c3ccc4c(c3)NC(=O)CO4)[nH]c2c1 | 0.357
36 | O=C(NC(Cc1ccccc1)C(=O)Oc1ccc2c(C(F)(F)F)cc(=O)oc2c1)OCc1ccccc1 (stereo not drawn) | 9.63
37 | CC(C)c1onc(C(=O)NC2CCCCC2)c1[N+](=O)[O-] | 6.3
38 | Cc1ccccc1OCC(O)CN.Cl.O (stereo not drawn) | -1.72

Row | Structure (SMILES) | hERG current change (%, negative = inhibition) at 10uM [%]
39 | Cc1ccc(NC(=O)CN(C)C(=O)CSc2nnc(C(F)(F)F)n2C)cc1 | 32.8
40 | CC(NCc1cccnc1)c1ccccc1 (stereo not drawn) | 18.7
41 | O=C(Nc1ccc2c(c1)OCO2)C(c1ccc(Cl)cc1)N1CCC2(CC1)OCCO2 (stereo not drawn) | -42.6
42 | CCn1cc(-c2ccccc2)c(C(=O)O)c1-c1ccc(OC)cc1 | 13.1
43 | O=C(C1=C[C@@H]2[C@H]3C(=O)N(c4ccccc4)C(=O)[C@H]3[C@@H](C(=O)c3ccc(Cl)cc3)N2C=C1)c1ccccc1 | 6.84
44 | Cc1cccc(NC(=S)NC(NC(=O)OCc2ccccc2)C(Cl)(Cl)Cl)c1 (stereo not drawn) | 9.47
45 | CC(C)CCOCC(=O)Oc1ccccc1C(=O)O | 9.05
46 | O=C(Oc1ccc2ccccc2c1)C1CCC1 | 17
47 | CCN(C(=O)CN1C(=O)/C(=C/c2ccccc2F)SC1=S)C1CCS(=O)(=O)C1 (stereo not drawn) | -1.57
48 | Cl.c1ccc(CNC2=NCCCCC2)cc1 | -5.64
49 | CCc1cccc2c(C(=O)C(F)(F)F)cn(CC(=O)N3CCOCC3)c12 | 5.08
50 | Cc1ccc(C2(c3ccccc3)NC(=O)N(CC(=O)N(C)C3CCS(=O)(=O)C3)C2=O)cc1C (stereo not drawn) | -22
51 | CCn1c(SCC(=O)NCC2CCCO2)nc2ccccc21 (stereo not drawn) | -4.19
52 | CC(NC(=O)/C(=C/c1ccc(OC(F)F)cc1)c1ccccc1)c1ccccc1 (stereo not drawn) | -33.1
53 | COc1cccc(-c2c3c([nH]c(=O)c2C#N)CCc2cc(OC)ccc2-3)c1 | 17.9
54 | Cc1ccccc1NC(=O)CSc1nnc(-c2ccccc2)n1-c1ccccc1 | -51.4
55 | Cc1nc2nc(CSc3nc4ccccc4s3)cc(=O)n2[nH]1 | 21.4
56 | O=C(Oc1ccccc1O)c1cccc2ccccc12 | 11.6
57 | COc1ccc(C(=O)NNC(=O)CN2CCC(n3nnc4cc(F)ccc43)CC2)cc1 | -18.4
